Experimental data as given in the RNAGym collection of RNA variant scans (doi:10.1073/pnas.2313332121).
Variants at the background level are over-represented here.

B1: TPR 5TU (parent)
chain: GGAUCUUCUCGAUCUAACAAAAAAGACAAAUCUGCCACAAAGCUUGAGAGCAUCUUCGGAUGCAGAGGCGGCAGCCUUCGGUGGCGCGAUAGCGCCAACGUUCUCAACUAUGACACGCAAAACGCGUGCUCCGUUGAAUGGAGUUUAUCAUG

Variants of: B1
Assay: polymerase ribozyme fitness, log enrichment relative to wild type (log ratio); higher = more active; in vitro selection for triplet polymerase activity
In short: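 Libraries of mutants in each subunit of a heterodimeric triplet polymerase ribozyme were generated by PCR and transcribed. In triplicate, each went through one in vitro selection round: annealing with biotinylated primer, partner subunit and triplets; frozen incubation at −7 °C; gel excision of extended constructs; streptavidin-bead capture; RT-PCR. Fitness, taken from Illumina sequencing of input and output libraries, is the logarithm of a genotype's enrichment over wild-type enrichment, averaged across replicates with inverse-variance weights. The logarithm is base 2, and genotypes needed ≥10 input reads and ≥1 read per output to be kept.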

Point of comparison: U31G U56A, “polymerase ribozyme fitness (log ratio)” value 0.083. Against it:
- A30U U44A U82A A91G — lower, ≤ -4.2
- A30U U56A C93U G124U G126A — lower, ≤ -4.2
- U31C A49C A52C A66C G143C U148G — lower, ≤ -4.2
- U31A U56A G70C G94C U130G — lower, ≤ -4.2
- U31A A47C C75U A98U G141U — lower, ≤ -4.2
- C32U A91G C93U G140C A142G — lower, ≤ -4.2
- U31G G83C C85G — lower, ≤ -4.2
- U31C G80C G124A U146A U151A — lower, ≤ -4.2
- C32A A37U — lower, ≤ -4.2
- C32U A52C U55G C57A — lower, -3.11
- U31C A41C A91C C95G U139A G143C — lower, ≤ -4.2
- U31C U44A A73G C108U C125A — lower, ≤ -4.2
- U31A A39C G59U C87U U90A G136A U145C — lower, ≤ -4.2
- C32G C57U G62C C85U G88U A98U C105U A119G — lower, ≤ -4.2
- C32A A37G G74A — lower, ≤ -4.2
- U31G A37C C51U G58U G70C C79U A106U — lower, ≤ -4.2
- U31G C87A A107U U111A A121C C131G — lower, ≤ -4.2
- C32A C35U C36G A60C A110G — lower, ≤ -4.2
- A30U U31A U44A C93U — lower, ≤ -4.2
- C32A G34U U55G G94C U127C G143A A150C — lower, ≤ -4.2
- C32G A47C C85U C105G A110G U144C — lower, ≤ -4.2
- U31A C43A C85U C93G — lower, ≤ -4.2
- U31G C51G C75G C76A — lower, ≤ -4.2
- C32G U56A U135G U144A — lower, ≤ -4.2
- U31G G94U A119U — lower, -0.547
- U31G G42C U151A — lower, ≤ -4.2
- C32G C76G G84C C118U C132G G133C — lower, ≤ -4.2
- U31A C87G G94A C96U A113G U139C — lower, ≤ -4.2
- U31G C43G U53A G83U — lower, ≤ -4.2
- C32A C79A A122G U135C — lower, ≤ -4.2
- A30U G50C C87A C95A A137G U146G — lower, ≤ -4.2
- C32G C38A C79G G83U G88U U102C U104A U109C C131A G136A — lower, ≤ -4.2
- U31C C54A C93G G152C — lower, ≤ -4.2
- U31G C38G U101G U139C U146G — lower, -4.03
- C32G C36U U53A C54G A91U A106C G136A — lower, ≤ -4.2
- C32U A52C U53A C75A C85G C96U U111G G126A — lower, ≤ -4.2
- U31A C85G A91C G100C C123A G133A A138U G143C — lower, ≤ -4.2
- U31A C76G C85U A89C U139G — lower, ≤ -4.2
- U31A G58A U77G — lower, ≤ -4.2
- C32G G34C C57U C96G G112A — lower, ≤ -4.2
- C32G G59C A66G U102A — lower, ≤ -4.2
- C32U C35A G88A A91G C93G C103U G126A U151A — lower, ≤ -4.2
- C32A A40G A47G C72G — lower, ≤ -4.2
- U31A U134A — lower, -1.82
- U31G U44A G94U C99G G128A U130G G152U — lower, ≤ -4.2
- C32G G48C C57G G80U C85U G140U — lower, ≤ -4.2
- U31C U45A G70C G92C — lower, ≤ -4.2
- U31G U55A A60C G92U C93A C125G U134A — lower, ≤ -4.2
- U31A C76U G124U U139C U145C — lower, ≤ -4.2
- C32A A113U — lower, ≤ -4.2
- U31G U56A G68A C95U A115U — lower, ≤ -4.2
- U31A A91G U144G — lower, -1.84
- A30U G68A C93U — lower, ≤ -4.2
- U31C C95A C96A U134C G143A U145G — lower, -3.45
- C32A A40U G62U C85G U146A — lower, ≤ -4.2
- U31A A37C U55A G86U A110G — lower, ≤ -4.2
- U31A A52G A60C G62A G71U U144G — lower, ≤ -4.2
- A30U U56A G58U C79A C93U C108G U111A A138G — lower, ≤ -4.2
- C32G A52C G71A C87A G92U C99A G133U U139A — lower, ≤ -4.2
- U31A A52U G62U C87U U102G G140C G141U — lower, ≤ -4.2
- C32G C36U G59C C76A G83C C108G A138U U145C — lower, ≤ -4.2
- U31C A41G A66C G68C C95G — lower, ≤ -4.2
- U31C A52C U56A U82C A107U — lower, ≤ -4.2
- A30U U45A G94U C131G — lower, ≤ -4.2
- A30U G50A U77C — lower, ≤ -4.2
- A30U U77C U111G — lower, ≤ -4.2
- C32A G62C C69U C87U U148A G152U — lower, ≤ -4.2
- U31A C32A A60C C63U C79A A98G G112C G136C U148A — lower, ≤ -4.2
- U31A U33C U55A A98U A106C C118A U146G — lower, ≤ -4.2
- C32U A40U C125G — lower, ≤ -4.2
- C32G A49C A52C G143U — lower, ≤ -4.2
- U31C C72A G84A G133U U135G G141C — lower, ≤ -4.2
- U31A G67U G83A C85A U104G C105U G136A — lower, ≤ -4.2
- C32U C36U U55A G68U U77G G143U U144C — lower, ≤ -4.2
- C32A U33G A47C — lower, ≤ -4.2
- C32A G59C C87A C118G — lower, ≤ -4.2
- C32G C76G C132G — lower, ≤ -4.2
- C32G A41C G65A A66C — lower, ≤ -4.2
- C32A U44G G58C U146G — lower, ≤ -4.2
- U31A U56G C69A C93G C103A C105A U144C U148G — lower, ≤ -4.2
- U31C C51A C69U G81A A91U G124A U144G — lower, ≤ -4.2
- C32G G59C C96A U144A — lower, ≤ -4.2
